# Experimental data: US6706740B2, “Fungicidal heterocyclic aromatic amides and their compositions, methods of use and preparation” (Dow AgroSciences LLC, priority 1999, dated 2004)
# Test system: Plasmopara viticola—PLASVI
# Assay: whole plant or invertebrate
# Format: in vivo
# Conditions: 100 ppm, 24 hour protectant, grape; control of fungal infection vs untreated plants
row,SMILES,PLASVI in vivo 1 Day Protectant
1,COc1ccnc(C(=O)N[C@@H]2CC(C)(C)C[C@](C)(C(=O)N(C)CCc3ccccc3)C2)c1O [Compound 263],− (<25% control of fungal infection)

# Same assay, conditions: Plasmopara, 24 h, read-out: PLASVI in vivo 1 Day Protectant, 100 ppm, 24 hour protectant, grape; control of fungal infection vs untreated plants
row,SMILES,pest or weed control at 100 ppm [%]
1,CC1(C)CC(NC(=O)c2ncccc2O)CC(C)(C2CC2)C1 (stereo not drawn) [Compound 204],< 25
2,COc1ccnc(C(=O)NCCCc2cccnc2)c1O [Compound 243],< 25
3,COc1cccc(CNC(=O)c2ncccc2O)c1 [Compound 225],< 25
4,COc1ccnc(C(=O)NC2CC(C)(C)CC(C)(COCC(Cl)CCl)C2)c1O (stereo not drawn) [Compound 257],25 to 74
5,O=C(NCc1cccc(Cl)c1)c1ncccc1O [Compound 219],25 to 74
6,COc1ccnc(C(=O)N[C@H]2CC3CC2[C@H](COCc2cccc(C(F)(F)F)c2)C3)c1O (stereo partly drawn) [Compound 294],25 to 74
7,COc1ccnc(C(=O)NC2CC(C)(C)C=CC(C)C2C)c1O (stereo not drawn) [Compound 279],< 25
8,COc1ccnc(C(=O)NC2C(=O)c3ccc(-c4ccco4)cc3OC2C)c1O (stereo not drawn) [Compound 323],< 25
9,Cc1cccc(CNC(=O)c2ncccc2O)c1 [Compound 222],< 25
10,COc1ccnc(C(=O)NC2CCN(C(=O)c3ccccc3)CC2)c1O [Compound 308],25 to 74
11,COc1ccnc(C(=O)NC2CC(C)(C)CC(C)(C3CC3)C2)c1O (stereo not drawn) [Compound 252],< 25
12,COc1ccnc(C(=O)NC2CC(C)(C)CC(C)(C)C2)c1O [Compound 250],< 25
13,"COc1ccnc(C(=O)N[C@H]2CC(C)(C)[C@H](O)C(C)(C)C2)c1O [Compound 264, trans-4-HYDROXY-3,3,5,5-TETRAMETHYLPICOLINAMIDE]",< 25
14,CCCCCCCCCNC(=O)c1ncccc1O [Compound 201],< 25
15,COc1ccnc(C(=O)NC2C[C@H](C)O[C@@](C)(Cc3ccccc3)C2)c1O (stereo partly drawn) [Compound 312],< 25
16,CCC1(C)CC(NC(=O)c2nccc(OC)c2O)CC(C)(C)C1 (stereo not drawn) [Compound 251],25 to 74

# Same assay, conditions: Plasmopara, 24 h, read-out: PLASVI in vivo 1 Day Protectant, 100 ppm, grape, 24 hour protectant, % control of fungal infection vs untreated plants
row,SMILES,pest or weed control at 100 ppm [%]
1,COCCC(=O)Oc1c(OC)ccnc1C(=O)N[C@H]1COC(=O)[C@H](Cc2ccccc2)[C@@H](OC(=O)C(C)(C)C)[C@H](C)OC1=O [Compound 703],< 25
2,COc1ccnc(C(=O)N[C@H]2COC(=O)[C@H](Cc3ccccc3)[C@@H](OC(=O)C(C)C)[C@H](C)OC2=O)c1OC(=O)c1ccc(F)c(F)c1 [Compound 639],< 25
3,COc1ccnc(C(=O)Nc2ccc(Sc3cccc(C(F)(F)F)c3)cc2)c1OC(C)=O [Compound 711],< 25
4,COc1ccnc(C(=O)N[C@H]2COC(=O)[C@H](Cc3ccccc3)[C@@H](OC(=O)C(C)C)[C@H](C)OC2=O)c1OC(=O)C1CCCCC1 [Compound 612],< 25
5,COCC(=O)Oc1c(OC)ccnc1C(=O)N[C@H]1COC(=O)[C@H](Cc2ccccc2)[C@@H](OC(=O)C(C)C)[C@H](C)OC1=O [Compound 653],< 25
6,COc1ccnc(C(=O)N[C@H]2COC(=O)[C@H](Cc3ccccc3)[C@@H](OC(=O)C(C)C)[C@H](C)OC2=O)c1OC(=O)C1CCCC1 [Compound 611],< 25

# Same assay, conditions: Plasmopara, 24 h, read-out: PLASVI in vivo 1 Day Protectant, 100 ppm, grape, 24 hour protectant; control of fungal infection vs untreated plants
row,SMILES,pest or weed control at 100 ppm [%]
1,COc1ccnc(C(=O)Nc2ccc(C(=O)Oc3ccc(C(F)(F)F)cc3)cc2)c1O [Compound 452],< 25
2,COc1ccnc(C(=O)N[C@H]2COC(=O)[C@H](Cc3ccccc3)[C@@H](OCC(C)C)[C@H](C)OC2=O)c1O [Compound 384],< 25
3,CCOC(=O)c1cc(Oc2ccc(C(F)(F)F)cc2)ccc1NC(=O)c1nccc(OC)c1O [Compound 427],25 to 74
4,COc1ccnc(C(=O)Nc2ccc(OCc3cccc(C(F)(F)F)c3)cc2)c1O [Compound 447],25 to 74
5,COc1ccnc(C(=O)N[C@H]2O[C@@H](C)[C@@H](OC(C)=O)[C@@H](OC(C)=O)[C@@H]2OC(C)=O)c1O [Compound 333],< 25
6,COc1ccnc(C(=O)Nc2cccc(NC(=O)c3ccc(C(F)(F)F)cc3)c2)c1O [Compound 454],< 25
7,COc1ccnc(C(=O)NC(COC(=O)CCc2ccccc2)C(=O)OC(C)COC(=O)C(C)C)c1O (stereo not drawn) [Compound 358],< 25
8,COc1ccnc(C(=O)NC(COC(=O)C(Cc2ccccc2)C(C)OC(=O)c2ccccc2)C(=O)OC(C)C)c1O (stereo not drawn) [Compound 356],25 to 74
9,COc1ccnc(C(=O)Nc2ccc(Oc3cccc(C(F)(F)F)c3)cc2)c1O [Compound 424],25 to 74
10,COc1ccnc(C(=O)N[C@H]2[C@@H](OC(C)=O)O[C@H](COC(C)=O)[C@@H](OC(C)=O)[C@@H]2OC(C)=O)c1O [Compound 335],< 25
11,COc1ccnc(C(=O)Nc2ccc(/C(=N/O)c3cccc(C(F)(F)F)c3)cc2)c1O [Compound 407],< 25
12,COc1ccnc(C(=O)Nc2ccc(Oc3ccc(Cl)cc3)cc2)c1O [Compound 443],25 to 74
13,COc1ccnc(C(=O)N[C@H]2COC(=O)[C@H](Cc3ccccc3)[C@@H](OC(=O)C3CC3)[C@H](C)OC2=O)c1O [Compound 387],< 25
14,COc1ccnc(C(=O)NC(COC(=O)CC(C)OC(=O)C(C)C)C(=O)OC(C)C)c1O (stereo not drawn) [Compound 352],25 to 74

# Same assay, conditions: Plasmopara, 24 h, read-out: PLASVI in vivo 1 Day Protectant, grape plants, 100 ppm, 24 hour protectant; control of fungal infection vs untreated plants
row,SMILES,pest or weed control at 100 ppm [%]
1,CC(C)C(=O)O[C@H]1[C@H](C)OC(=O)[C@@H](NC(=O)c2nc(Cl)c(Cl)nc2O)COC(=O)[C@@H]1Cc1ccccc1 [Compound 538],25 to 74
2,O=C(NCc1sccc1Cl)c1nc(Br)ccc1O [Compound 484],< 25
3,COc1ccnc(C(=O)Nc2ccc(Oc3cc(C(F)(F)F)nc(C(F)(F)F)c3)cc2)c1O [Compound 466],< 25
4,CC1(C)CC(NC(=O)c2conc2O)CC(C)(C)C1 [Compound 560],25 to 74
5,CC(C)C(=O)O[C@H]1[C@H](C)OC(=O)[C@@H](NC(=O)c2conc2O)COC(=O)[C@@H]1Cc1ccccc1 [Compound 561],25 to 74
6,O=C(NC(Cc1ccccc1)c1ccccc1)c1nc(Br)ccc1O (stereo not drawn) [Compound 491],25 to 74
7,O=C(Nc1ccccc1Oc1ccccc1)c1cccnc1O [Compound 520],< 25
8,O=C(Nc1cccc(Oc2ccccc2C(F)(F)F)c1)c1nc(Br)ccc1O [Compound 494],< 25
9,COc1ccnc(C(=O)N[C@@H]2OC[C@@H](OCc3ccccc3)[C@H](OCc3ccccc3)[C@H]2OCc2ccccc2)c1OC(C)=O [Compound 592],< 25
10,O=C(Nc1ccc(Oc2cccc(C(F)(F)F)c2)cc1)c1nccnc1O [Compound 535],25 to 74
11,"CC1(C)CC(NC(=O)c2cscc2O)CC(C)(C)C1 [Compound 554, 4-HYDROXYTHIOPHENE-N-(3,3,5,5-TETRAMETHYLCYCLOHEXYL)-3-CARBOXAMIDE]",< 25
12,CC(=O)Oc1cccnc1C(=O)N[C@H]1COC(=O)[C@H](Cc2ccccc2)[C@@H](OC(=O)C(C)C)[C@H](C)OC1=O [Compound 568],< 25
13,Cc1ccc(C(=O)NC2CC(C)(C)CC(C)(C)C2)c(O)n1 [Compound 524],< 25
14,Cc1ccnc(C(=O)NC2CC(C)(C)CC(C)(C)C2)c1OC(=O)C(C)C [Compound 571],< 25
